Results reported in PubChem BioAssay AID1347165 (National Center for Advancing Translational Sciences (NCATS), 2019).
About 5,700 (2.6%) of roughly 220,000 compounds were called active. Inconclusive means that the source gave no clear call. Such entries were picked first, then a sample of the others. Calls follow the shape of the dose curve; as a rule, active = well fitted inhibition curve with a large enough effect; inconclusive = small, poorly fitted or top-dose-only effect; inactive = no such curve, though single readings can be large or run the other way. A potency beside an inconclusive call is a rough fit, not a confirmed value.

Target: Lysine-specific demethylase 5B (Homo sapiens) (UniProt Q9UGL1)
Experiment: Primary screen for KDM5B Histone Demethylases FDH-coupled qHTS; also: nearly all actives have a fitted effect of over 70% in size; as to activity change, negative = inhibition: 0% is about no effect
Settings: FDH-coupled NADH fluorescence (FDH is formaldehyde dehydrogenase); activity change, negative = inhibition: at 57.7 µM (top of the series) unless noted
Summary of the method: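 KDM5BΔAP (200 nM final) in 50 mM HEPES pH 7.5, 0.01% Tween-20 was preincubated 10 min at RT with compound over a concentration range. Substrate mix (H3K4me3 12.5 µM, α-KG 25 µM, Fe²⁺, ascorbate, NAD⁺, FDH) was added, and NADH fluorescence change over 30 min gave dose-response curves.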
Potency is read from the fitted curve at half-maximal effect; tags tell the direction and shape of the fitted curve.

Chain of UniProt Q9UGL1 (Q9UGL1 whole entry, looked up): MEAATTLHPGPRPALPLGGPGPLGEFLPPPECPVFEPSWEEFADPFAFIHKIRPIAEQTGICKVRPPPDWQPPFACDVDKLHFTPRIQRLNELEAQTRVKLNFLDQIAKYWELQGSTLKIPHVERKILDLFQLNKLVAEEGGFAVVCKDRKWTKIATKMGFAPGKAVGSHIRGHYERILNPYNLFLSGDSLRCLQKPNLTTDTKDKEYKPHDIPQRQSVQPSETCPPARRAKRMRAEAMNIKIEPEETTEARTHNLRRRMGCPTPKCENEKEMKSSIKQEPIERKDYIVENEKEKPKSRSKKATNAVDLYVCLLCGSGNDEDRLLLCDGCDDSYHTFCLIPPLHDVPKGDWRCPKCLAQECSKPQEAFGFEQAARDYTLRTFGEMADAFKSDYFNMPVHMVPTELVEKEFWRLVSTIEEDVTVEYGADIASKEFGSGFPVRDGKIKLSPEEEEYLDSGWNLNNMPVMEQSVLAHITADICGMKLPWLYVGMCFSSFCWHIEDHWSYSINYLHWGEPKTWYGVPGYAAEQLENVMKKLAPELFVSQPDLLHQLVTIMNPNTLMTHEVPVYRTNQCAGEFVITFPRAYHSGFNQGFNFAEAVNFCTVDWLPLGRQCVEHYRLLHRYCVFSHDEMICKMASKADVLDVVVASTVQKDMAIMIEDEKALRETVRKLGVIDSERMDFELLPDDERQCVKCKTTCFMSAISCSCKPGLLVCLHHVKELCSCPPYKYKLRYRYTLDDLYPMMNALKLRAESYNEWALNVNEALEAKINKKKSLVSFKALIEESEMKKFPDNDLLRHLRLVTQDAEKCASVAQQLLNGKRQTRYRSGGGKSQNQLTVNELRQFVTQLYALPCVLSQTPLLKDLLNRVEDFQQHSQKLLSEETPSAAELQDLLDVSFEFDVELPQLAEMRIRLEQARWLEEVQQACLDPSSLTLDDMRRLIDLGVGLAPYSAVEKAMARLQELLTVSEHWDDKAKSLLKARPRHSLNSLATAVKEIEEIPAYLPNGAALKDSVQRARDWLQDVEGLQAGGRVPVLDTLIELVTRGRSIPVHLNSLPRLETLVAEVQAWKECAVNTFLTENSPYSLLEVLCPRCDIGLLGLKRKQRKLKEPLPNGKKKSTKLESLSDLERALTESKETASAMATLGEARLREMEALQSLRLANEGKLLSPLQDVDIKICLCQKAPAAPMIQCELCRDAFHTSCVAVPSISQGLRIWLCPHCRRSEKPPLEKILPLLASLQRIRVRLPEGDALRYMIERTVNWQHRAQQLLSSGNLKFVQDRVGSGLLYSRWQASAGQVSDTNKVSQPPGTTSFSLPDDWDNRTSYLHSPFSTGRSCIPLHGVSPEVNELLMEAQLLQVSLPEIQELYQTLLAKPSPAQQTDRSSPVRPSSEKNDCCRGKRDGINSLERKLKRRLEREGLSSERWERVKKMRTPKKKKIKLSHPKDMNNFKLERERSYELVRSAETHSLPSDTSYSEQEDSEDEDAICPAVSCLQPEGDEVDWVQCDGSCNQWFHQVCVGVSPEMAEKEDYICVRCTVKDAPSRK

Row | SMILES | Potency | activity change, negative = inhibition
1 | CCN(Cc1ccc2c(c1)OCO2)C(=O)c1nn(-c2ccccc2)c(=O)c2ccccc12 | inactive | –
2 | COc1ccc(OC)c(NC(=O)c2cc3n(n2)CC(c2ccc(Cl)cc2)OC3)c1 (centres undefined) | active: 25.1 µM | –
3 | COc1cccc(CNC(=O)c2ccc(N3CCOCC3)c(NC(=O)Nc3cc(F)ccc3F)c2)c1 | inconclusive: 31.6 µM [inhibitor, single point] | –
4 | Cc1c(C)n(CCCN2CCOCC2)c2ncn3nc(-c4ccc(F)cc4)nc3c12 | inconclusive: 12.6 µM [inhibitor, partial curve, poor fit] | –
5 | COCC1CN(C)CC12CCN(C(=O)Cc1ccc(OC)c(Cl)c1)CC2 (centres undefined) | inconclusive: 10 µM [inhibitor, full curve, poor fit] | –
6 | NC(N)=N/N=C/c1ccc2cccc(OCc3ccccc3)c2n1 | inconclusive: 28.2 µM [inhibitor, partial curve, poor fit] | –
7 | COc1ccc2oc(-c3cccc(NC(=O)CC45CC6CC(CC(C6)C4)C5)c3)nc2c1 | inconclusive: 28.2 µM [inhibitor, partial curve, poor fit] | –
8 | Cc1cccc(-c2cccc3c4c([nH]c23)[C@@H]2C[C@H](N(C)C(=S)Nc3ccc(C#N)cc3)[C@H]([C@H](C)O)CN2CC4)c1 | inconclusive: 20 µM [inhibitor, partial curve, poor fit] | –
9 | Cc1ccsc1[C@@H]1CCN(C(=O)c2ccc(-n3cnnn3)cc2)C[C@H]1O | inconclusive: 28.2 µM [inhibitor, single point] | –
10 | CCc1ccc(NC(=O)c2ncoc2-c2cccc(OC)c2)cc1 | inactive | –
11 | Cn1c(CCN2CCCCC2)nc2cc(NC(=O)c3ccccc3Cl)ccc21 | inactive | –
12 | CC(C)c1noc(-c2cccn3c(CNC(=O)c4cc5ccccc5[nH]4)nnc23)n1 | inconclusive: 31.6 µM [inhibitor, single point] | –
13 | COc1ccc(C(=O)NCC2(COc3ccccc3)C[C@@H](O)[C@@H](O)C2)cc1 (some centres undefined) | inactive | –
14 | CCC(=O)Nc1cccc(OCc2cc(=O)n3cc(C)ccc3n2)c1 | inconclusive: 35.5 µM [inhibitor, partial curve, poor fit] | –
15 | Cc1ccc2c(c1)C(CS(=O)(=O)NCc1ccc(F)cc1)NC2 (centres undefined) | inconclusive: 14.1 µM [inhibitor, partial curve, poor fit] | –
16 | CCOC(=O)c1cc(NCc2ccccc2)ccc1N1CCOCC1 | inconclusive: 39.8 µM [inhibitor, single point] | –
17 | CCCCn1nnnc1CSc1nnc(-c2ccccc2)n1-c1ccccc1 | inactive | –
18 | COc1ccc(OC)c(CN2CC[C@@H]3OCC(=O)N(c4ccccc4)[C@H]3CC2)c1 | inconclusive: 35.5 µM [inhibitor, single point] | –
19 | CC(C)NC(=O)C[C@@H]1C[C@H]2O[C@H](CNC3CCNCC3)[C@@H](O)[C@H]2O1 | inconclusive: 28.2 µM [inhibitor, partial curve, poor fit] | –
20 | O=C(CC1CCOCC1)N1CCN(Cc2ccccc2F)CC1 | inconclusive: 39.8 µM [inhibitor, single point] | –
21 | CCC(=O)N1N=C(c2ccco2)CC1c1ccc2nccnc2c1 (centres undefined) | inactive | –
22 | CN1CCCC2(C1)CN(C)c1ccc(C(=O)NCc3cccs3)cc12 (centres undefined) | active: 35.5 µM | –

Row | SMILES | Potency | activity change, negative = inhibition
23 | COc1ccccc1N(CC(=O)Nc1cc(C)cc(C)c1)S(C)(=O)=O | inconclusive: 0.794 µM [inhibitor, full curve, poor fit] | –
24 | CN(Cc1ccco1)S(=O)(=O)c1nnc(NC(=O)c2ccccc2)s1 | – | inconclusive: -32.9% [inhibitor]
25 | O=C(NCc1ccc2c(c1)OCO2)c1nc(-c2cc(Cl)cc(Cl)c2)c2ccccn12 | active: 14.1 µM | –
26 | c1cncc(COC2CCN(c3ncncn3)CC2)c1 | inactive | –
27 | c1cc2cc(Nc3cnc4ccc(N5CCOCC5)nn34)ccc2[nH]1 | inactive | –
28 | O=C(Cn1c(SCC(=O)Nc2ccc(F)cc2)nc2ccccc21)NCc1ccc(Cl)cc1 | inactive | –
29 | CCOc1cccc2cc(C(=O)/C=C/c3ccc(C)cc3)c(=O)oc12 | inconclusive: 11.2 µM [inhibitor, partial curve, poor fit] | –
30 | COC1CCC(C(=O)N2CCc3c(n(Cc4cccnc4)n(-c4ccccc4)c3=O)C2)CC1 (centres undefined) | inactive | –
31 | CN(C)C(=O)c1coc2nc3ccccc3nc12 | inconclusive: 31.6 µM [inhibitor, partial curve, poor fit] | –
32 | Nc1ncc(S(=O)(=O)Nc2ccc(OC(F)(F)F)cc2)cn1 | inconclusive: 28.2 µM [inhibitor, single point] | –
33 | Cc1cc(C(=O)NC2CC2)c2c(C3CCNCC3)noc2n1 | inconclusive: 100 µM [inhibitor, partial curve, poor fit] | –
34 | Cc1ccc(CSc2cn(CCNC(=O)c3cccs3)c3ccccc23)cc1 | inconclusive: 5.01 µM [inhibitor, partial curve, poor fit] | –
35 | CCOc1cc(/C=C(/C#N)c2ccccn2)ccc1OCC(F)(F)F | inconclusive: 39.8 µM [inhibitor, single point] | –
36 | CCNC(=O)N[C@H]1[C@H](O)[C@@H](N2CCOCC2)[C@@H]2OC[C@H]1O2 | inconclusive: 39.8 µM [inhibitor, partial curve] | –
37 | CCOCCCNC(=O)CSCc1nc(-c2ccc(OC)c(OC)c2)oc1C | inconclusive: 28.2 µM [inhibitor, partial curve, poor fit] | –
38 | CCCn1cc2c3c(cccc31)CN(C(=O)c1cccc(C#N)c1)CC2 | inconclusive: 39.8 µM [inhibitor, single point] | –
39 | COC(=O)CNC(=O)Cn1ccc2c(Cl)cccc21 | inactive | –
40 | CCCOc1ccc(C(F)(F)F)cc1N | inactive | –
41 | O[C@@H]1[C@@H](Cn2cc(C3CC3)nn2)C[C@@H](NCc2nccs2)[C@@H]1O | inconclusive: 35.5 µM [inhibitor, partial curve, poor fit] | –
42 | CCOc1ccc(NC(=O)Nc2c[nH]c(=O)[nH]c2=O)cc1 | inconclusive: 25.1 µM [inhibitor, partial curve, poor fit] | –
43 | O=[N+]([O-])c1cccc(-c2noc([C@@H]3C[C@@H](O)CN3Cc3cccnc3)n2)c1 | inconclusive: 31.6 µM [inhibitor, partial curve, poor fit] | –
44 | O=C(N(Cc1cccc2[nH]ccc12)C1CC1)C12CC3CC(CC(C3)C1)C2 | inactive | –

Row | SMILES | Potency | activity change, negative = inhibition
45 | COc1cc(C2SCCS2)ccc1OC(=O)c1ccc2ncsc2c1 | inconclusive: 39.8 µM [inhibitor, single point] | –
46 | COc1ccc(NC(=O)CSc2ncc3c(n2)-c2ccccc2N(C)S3(=O)=O)cc1Cl | inconclusive: 39.8 µM [inhibitor, single point] | –
47 | COCc1cn(C[C@H]2C[C@@H](NC(=O)c3ccccc3)[C@H](O)[C@@H]2O)nn1 | inconclusive: 31.6 µM [inhibitor, partial curve] | –
48 | Cc1cn2nc(C(=O)N3CCCC3)cc2c(N(C)Cc2ccccc2)n1 | inconclusive: 25.1 µM [inhibitor, partial curve, poor fit] | –
49 | O=C(c1ccc(Cl)cc1)N1CCC(n2cc(-c3cccc(F)c3)[nH]c2=O)CC1 | inconclusive: 79.4 µM [inhibitor, partial curve, poor fit] | –
50 | CN(C)c1cccc(-c2cc3c(cn2)CN(Cc2cccnc2)CCN3)c1 | inactive | –
51 | CCOc1ccc(C(=O)NCCc2sc(-c3ccc(F)cc3)nc2C)cc1 | inconclusive: 22.4 µM [inhibitor, partial curve, poor fit] | –
52 | COc1ccc(Nc2ncc(C(=O)N3CCN(c4ccccc4OC)CC3)c3ccccc23)cc1 | inconclusive: 35.5 µM [inhibitor, partial curve, poor fit] | –
53 | COc1ccc(CNC(=O)CC[C@H]2CNC(=O)[C@@H]3[C@@H](CCN3Cc3ccc(OC)cc3)N2C)cc1 | inconclusive: 17.8 µM [inhibitor, partial curve, poor fit] | –
54 | CCNc1nc(SCC(N)=O)nc2sc3c(c12)CCN(C)C3 | inconclusive: 25.1 µM [inhibitor, partial curve, poor fit] | –
55 | O=C1NCCCCCCN(Cc2ccncc2)[C@@H]2CN(C(=O)c3ccsc3)CC[C@@H]12 | inconclusive: 22.4 µM [inhibitor, single point] | –
56 | CC(=O)N1CCN(C(=O)c2nc(-c3ccccc3)cs2)CC(O)C1 (centres undefined) | inconclusive: 3.98 µM [inhibitor, partial curve] | –
57 | COc1ccc(-c2nc3cc(NC(=O)COc4ccc(C)c(C)c4)ccc3o2)cc1 | inconclusive: 39.8 µM [inhibitor, single point] | –
58 | COc1ccc([S+](=O)([O-])N2CCC3(CC2)OCCN(CC2CC2)C3=O)cc1 | inactive | –
59 | COc1ccc2c(CN3CCN(C(=O)C4COc5ccccc5O4)CC3)cc(=O)oc2c1 (centres undefined) | inactive | –
60 | CCCN1C(=O)c2oc3cc(C)cc(C)c3c(=O)c2C1c1ccc(F)cc1 (centres undefined) | inconclusive: 28.2 µM [inhibitor, partial curve, poor fit] | –
61 | COc1ccc(S(=O)(=O)Nc2cccc(CCc3nc4ccccc4n3C)c2)cc1OC | inactive | –
62 | Cc1nnc([C@H]2CCN(C3CCN(C)CC3)C2)o1 | inconclusive: 35.5 µM [inhibitor, partial curve] | –
63 | CCN(CC)CCCNC(=O)CCc1c(C)nc2c(c1C)c(=O)n(C)c(=O)n2C | inconclusive: 25.1 µM [inhibitor, partial curve, poor fit] | –
64 | CCc1nc2c(c(-c3ccc(OC)cc3)n1)CCN(Cc1ccsc1)CC2 | inconclusive: 56.2 µM [inhibitor, partial curve, poor fit] | –
